Results as given in the supplement of paper PMC10338343.
± gives the standard deviation. In all, about 3,000 sequences were measured (“pre-steady-state target cleavage rate”: median about 0.0079, highest 2% from about 0.2 on). The list shows a part of the results, in another mix than the full data.

system: MILI (PIWIL2) piRISC loaded with piRNA #2 (26 nt); assay: pre-steady-state target cleavage rate (min^-1); MIWI and MILI are mouse PIWI proteins and EfPiwi is from a freshwater sponge; tags in brackets are library labels; higher = faster piRNA-guided slicing of the target; conditions: guide: piRNA #2 5'p-UUAGGUAACCCAGUAGAUCCAGAGGA; auxiliary factor: 500 nM mouse GTSF1
In short: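 Reactions were run for 0–8 or 0–960 min at 33 °C in HEPES–potassium acetate buffer, combining 1 nM active affinity-purified piRISC with one synthetic guide, […] transcribed, DNA-blocked target RNA library and, in some cases, 500 nM GTSF1 partner protein. Sequencing of uncleaved targets followed, with normalisation to depth and to weakly complementary targets. Three trials were pooled, k3 was capped at 0.0001 min^-1, and the pre-steady-state cleavage rate was taken from a burst-and-steady-state fit.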
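Note: 1 nM active piRISC with 0.1 nM target library at 33 °C single turnover.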

| Sequence | pre-steady-state target cleavage rate |
| --- | --- |
| CUUAAGCACUGGAUCUACUGGGUUACCUAA | 0.113 ± 0.02 |
| CUUAAGCUCUGGUUCUACUCGGUUACCUAA | 0.00378 ± 0.003 |
| CUUAAGGUCUGGAUCAUCUGGGUUACCUAA | 0.0302 ± 0.012 |
| CUUAACCCUGGAUCUACUGGGUUACCUAA | 0.0911 ± 0.024 |
| CUUAAGGAGAGGAUCUACUGAGUUACCUAA | 0.00486 ± 0.0035 |
| CUUAUCCUCUGGAUCUACUGGGUUACCUA | 0.159 ± 0.032 |
| CUUAAGGACUGGAUCUACUAGGUUACCUAA | 0.025 ± 0.014 |
| CUUAUCCUCUCGAUGUACUGGGUUACCUAA | 0.12 ± 0.019 |
| CUUAAGGAGUGGAUCUACUGGGUUACCUCAA | 0.0289 ± 0.0095 |
| CUUAAGGUCUGCAUCUACUGGGUUAGCUAA | 0.0234 ± 0.0095 |
| CUUAACCUCUGGAUCUACUGGGUUACCUAAA | 0.0972 ± 0.022 |
| CUUAAGCUCUCGAUCUACUGGCUUACCUAA | 0.00378 ± 0.0026 |
| CUUAAGGUCUGGAUCAACUGGGUUACGUAA | 0.00629 ± 0.0038 |
| CUUAACCUCUGGAUCUACUGAGUUACCUAA | 0.0491 ± 0.013 |
| CUUAAGGUCUGCAUCUACUGGGUUACCUUA | 0.0365 ± 0.013 |
| CUUAAGCUCUGCAUCUACUGCGUUACCUAA | 0.0146 ± 0.0057 |
| CUUAAGCUCUGGUUCUACUGGCUUACCUAA | 0.00402 ± 0.003 |
| CUUAACCUCUGGAUCAACUGGGAUACCUAA | 0.018 ± 0.008 |
| CUUAACCUCUGGUUCUACUGGGAUACCUAA | 0.0951 ± 0.039 |
| CUUAAGGUCUAGGAUCUACUGGGUUACCUAA | 0.0231 ± 0.0063 |
| CUUAUCCUCUGGAUCUACUGGGUAAGCUAA | 0.126 ± 0.036 |
| CUUAUCCUCUGGAUCUUCUGGGUAACCUAA | 0.0373 ± 0.0099 |
| CUUAAGGUCUGGAUCUACUGGGUUACUUAA | 0.0785 ± 0.018 |
| CUUAAGGAGAGGAUCUACUGGGUUGCCUAA | 0.00497 ± 0.0039 |

| Sequence | pre-steady-state target cleavage rate |
| --- | --- |
| CUUAAGGAGUGGAUCUAGUGGGUUUCCUAA | 0.00754 ± 0.0029 |
| CUUAUCCUCACCAUCUACUGGGUUACCUAA | 0.127 ± 0.051 |
| CUUAAGGAGACGAUCUACAGGGUUACCAAA | 0.00536 ± 0.0036 |
| CUUAACCUUCUGGAUCUACUGGGUUACCUAA | 0.106 ± 0.021 |
| CUUAACCUCUGGAUGAUCUGGGUUACCUAA | 0.065 ± 0.02 |
| CUUAACCUCUGGAUCUACUGCGUUACCUUA | 0.00986 ± 0.005 |
| CUUAACCUCUCGAUCUACUGGGUUACCUUA | 0.139 ± 0.026 |
| CUUAUGCUCUGGAUCUACUGGGUUACGUAA | 0.0534 ± 0.011 |
| CUUAACCUCUGGAUCAACUGGGUAACCUAA | 0.0313 ± 0.011 |
| CUUAAGGACUGGAUCUAGUGGGUUACCUUA | 0.0338 ± 0.0096 |
| CUUAUCCUCUCGAACUACUGGGUUACCUAA | 0.105 ± 0.016 |
| CUUAACCUCUGGAUCUACUGGGUUACCUCA | 0.103 ± 0.025 |
| CUUAAGGAGUGGAUCUACUGGGUUGACCUAA | 0.00879 ± 0.0042 |
| CUUAACCUCCGGAUCUACUGGGUUACCUAA | 0.0951 ± 0.027 |
| CUUAACCUCUGGAUCUACUGGGAUACCAAA | 0.0469 ± 0.018 |
| CUUAAGGACUGGAUCUAGUGGGUUACCUAA | 0.044 ± 0.011 |
| CUUAACCUCUGGAUGUAGUGGGUUACCUAA | 0.0952 ± 0.015 |
| CUUAACCUCAGGAUCUACUGGGUUACGUAA | 0.0145 ± 0.0078 |
| CUUAACCUCUGGAUGUACUGGGUUUCCUAA | 0.147 ± 0.059 |
| CUUAAGCUCUGGAUCAACUGGGUUACCUAA | 0.0329 ± 0.01 |
| CUUAAGGUCUGGUUCUAGUGGGUUACCUAA | 0.0785 ± 0.017 |
| CUUAACCUCUGCAUCUACUGGGUUUCCUAA | 0.14 ± 0.059 |
| CUUAAGGUCUGGAUCUUCUGGGUUACCUUA | 0.0322 ± 0.0091 |
| CUUAAGGAGACCAUGUACUGGGUAACCUAA | < 0.0001 |

| Sequence | pre-steady-state target cleavage rate |
| --- | --- |
| CUUAUCGUCUGGAUCAACUGGGUUACCUAA | 0.0335 ± 0.009 |
| CUUAAGGUCUGGAUCUUCAGGGUUACCUAA | 0.0706 ± 0.011 |
| CUUAAGCUUGGAUCUACUGGGUUACCUAA | 0.084 ± 0.027 |
| CUUAAGCUCUGCAUCUUCUGGGUUACCUAA | 0.0479 ± 0.0093 |
| CUUAAGGAGUGGAUCUACUGGGAUACCUAA | 0.0104 ± 0.0067 |
| CUUAAGGACUGGAUCUUCAGGGUUACCUAA | 0.036 ± 0.013 |
| CUUAUGCUCUGGAUCUACUGGGAUACCUAA | 0.0451 ± 0.011 |
| CUUAAGGUCUGGAUCUACUGGGUUACCAUA | 0.0616 ± 0.012 |
| CUUAACCUCUAGGAUCUACUGGGUUACCUAA | 0.0385 ± 0.012 |
| CUUAUCCUCUGGAUCUACUGGGUUUACCUAA | 0.107 ± 0.023 |
| CUUAAGGAGACGAUCUACAGGGUUACCUAA | 0.00832 ± 0.0041 |
| CUUAAGGAGUGGUUCUACAGGGUUACCUAA | 0.0435 ± 0.0097 |
| CUUAAGGUGCUGGAUCUACUGGGUUACCUAA | 0.0675 ± 0.019 |
| CUUAAGGUCUGGAUCUUCUGGGUUAGCUAA | 0.00557 ± 0.0047 |
| CUUAAGGUCUGGAUCUACUGGGUUCCUAA | 0.00608 ± 0.0041 |
| CUUAAGCUAUGGAUCUACUGGGUUACCUAA | 0.0866 ± 0.013 |
| CUUAUCCUCUGGAUCUACUGGGUUACCAUA | 0.139 ± 0.026 |
| CUUAUCCUCUGGAUCUACUGGGAUUACCUAA | 0.0662 ± 0.02 |
| CUUAAGCUCUGGAUCUACUGGGUUACAUAA | 0.0717 ± 0.015 |
| CUUAAGCUCUGGAUGUACUGGGUUAGCUAA | 0.0299 ± 0.012 |
| CUUAAGGUCUGGUUCUACUGGGUUACCUUA | 0.0401 ± 0.015 |
| CUUAAGGUCUGGAUGAACUGGGUUACCUAA | 0.0133 ± 0.012 |
| CUUAAGGAGUGGAUCUACUGGGUGUACCUAA | 0.0153 ± 0.007 |
| CUUAUCCUCUGGAUCUACUGGGAUUCCUAA | 0.125 ± 0.055 |
